The source of these data is PubChem BioAssay AID488969 (Vanderbilt High Throughput Screening Facility, 2010).

In all, about 110,000 compounds were measured (“z-score”: median about -0.1, highest 2% from about 2 on). The list shows a part of the results. Calls of active or inactive are those of the source.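 The calls were made as follows: active = z-score in the third read window above 3 or below -3; inactive = the rest.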

The target of the experiment is Metabotropic glutamate receptor 8 (Rattus norvegicus) (UniProt P70579). The experiment can be described thus: rat mGluR8 modulators via GIRK flux, primary screen, cell-based, thallium flux, HTS (AID 488969). The settings on record: HEK293 rat mGluR8, GIRK (G protein-gated inwardly rectifying potassium channel) thallium flux, FluoZin2; at 10 µM; stronger effect = higher value; submaximal glutamate (EC20) added with thallium.
UniProt P70579, sequence (P70579 whole entry, looked up): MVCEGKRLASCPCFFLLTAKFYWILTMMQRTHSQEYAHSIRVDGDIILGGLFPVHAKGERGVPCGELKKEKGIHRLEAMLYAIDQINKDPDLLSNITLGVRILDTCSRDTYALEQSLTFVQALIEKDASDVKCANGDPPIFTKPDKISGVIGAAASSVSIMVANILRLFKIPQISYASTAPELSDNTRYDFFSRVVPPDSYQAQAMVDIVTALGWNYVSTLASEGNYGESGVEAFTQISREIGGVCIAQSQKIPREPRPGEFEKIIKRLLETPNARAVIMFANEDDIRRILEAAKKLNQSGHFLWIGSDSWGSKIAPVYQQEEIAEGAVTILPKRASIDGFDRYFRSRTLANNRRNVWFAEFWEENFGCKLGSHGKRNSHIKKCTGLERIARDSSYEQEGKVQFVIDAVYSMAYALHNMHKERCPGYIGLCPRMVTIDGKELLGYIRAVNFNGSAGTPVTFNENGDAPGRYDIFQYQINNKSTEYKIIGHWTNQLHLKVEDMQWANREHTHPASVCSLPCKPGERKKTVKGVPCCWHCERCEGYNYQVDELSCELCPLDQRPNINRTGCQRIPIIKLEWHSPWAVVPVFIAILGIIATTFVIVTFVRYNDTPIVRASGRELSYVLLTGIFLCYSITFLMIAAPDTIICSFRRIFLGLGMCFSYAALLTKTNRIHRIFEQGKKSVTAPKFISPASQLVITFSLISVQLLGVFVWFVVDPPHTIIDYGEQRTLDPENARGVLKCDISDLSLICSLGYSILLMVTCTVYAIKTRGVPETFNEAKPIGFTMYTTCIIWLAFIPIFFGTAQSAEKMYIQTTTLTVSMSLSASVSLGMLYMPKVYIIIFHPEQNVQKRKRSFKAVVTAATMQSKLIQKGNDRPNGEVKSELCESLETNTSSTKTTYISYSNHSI
For `Cc1ccc(CNC(=O)/C=C/c2ccccc2Cl)cc1`, the z-score is -0.124.
For the compound `CN(C(=O)Nc1ccccc1)C1CCS(=O)(=O)C1` (stereo unspecified), the z-score stood at 0.91.
In turn, `Cn1c2ccccc2n2c(=O)c(Cl)c(-c3ccccc3)c(C#N)c12` registered a z-score of -0.222.
The compound `Cc1cc(=O)oc2cc(OC(C)C(=O)O)c(Cl)cc12` (stereo unspecified) returned a z-score of 0.678.
For `Oc1ccc(-c2n[nH]c(=S)n2-c2ccc3c(c2)OCCO3)c(O)c1`, the z-score was -0.645.
Consider `Cc1[nH][nH]c(=O)c1C(c1c(C)[nH][nH]c1=O)c1cn(Cc2ccc(F)cc2)c2ccccc12`, for which the z-score is -0.769.
`CC1SC(c2ccc(Cl)cc2)NC1=O` (stereo unspecified) yielded a z-score of -0.014.
With `CC(=O)N1CCN(c2ccc(NCc3ccc(C(C)C)cc3)cc2)CC1` the figure was 2.03.
With `COc1ccc(CCNC(=O)CCS(=O)(=O)c2ccc3c(c2)CCN3C(C)=O)cc1OC`, the z-score was -0.046.
As to `CC(C)(c1ccccc1)c1ccc(OCCn2cnc3ccccc3c2=O)cc1`, the z-score was -0.307.
As for `Cc1occc1C(=O)NNC(=O)Nc1ccc(Cl)c(Cl)c1`, the figure is -0.135; as for `CCC(C)(C)n1nnnc1CN1CCN(c2nc3ccc(C)cc3cc2C#N)CC1`, -0.229.
As for `Cc1cc(C(F)F)n2nc(C(=O)Nc3cc(C)on3)nc2n1`, the z-score turned out to be 0.927.
As for `COc1cc(NC(=O)CCn2c(=O)[nH]c3ccsc3c2=O)cc(OC)c1`, the figure is 0.791.
Consider `CC(C)Cn1c(/C=N/Nc2nc3ccccc3[nH]2)nc2ccccc21`, for which the z-score came out at 0.188.
`CN(CC(=O)N1CC(=O)N(CCc2ccccc2)C(=O)C1)S(=O)(=O)c1cccc2nsnc12` gave a z-score of 0.446.
As for `CCOc1ccccc1OCCCC(=O)NC1=NCCS1`, the figure is -0.897.
With `CC(=O)N(Cc1c(C)nn(-c2ccccc2)c1Cl)c1ccc(Cl)cc1`, the z-score is -0.615.
With `CCOc1cccc2cc(C(N)=O)c(=NCc3ccccc3)oc12` the figure was -0.427.
`O=C(O)CCC(=O)Nc1ccc(Sc2ccc([N+](=O)[O-])cc2)cc1` showed a z-score of -0.142.
As for `O=C(CCN1C(=O)COc2ccccc21)NCc1cccnc1`, the figure is 0.317; as for `O=C(NC1CCCCCC1)C1c2ccccc2C(=O)N1Cc1ccco1` (stereo unspecified), -0.0522; as for `COCCCn1c(C)csc1=Nc1cccnc1`, 0.069.
With `CCOc1cc(N2CCOCC2)c(OCC)cc1NC(=O)CN1C(=O)NC2(CCc3ccccc32)C1=O` (stereo unspecified) the figure was 0.674; with `Cc1cc(OCCCCCNCCO)ccc1Cl`, 1.03.
`CCOC(=O)C1CCCN(c2c(N3CCN(C4CCCCC4)CC3)c(=O)c2=O)C1` (stereo unspecified) yielded a z-score of 0.872.
In turn, `COc1ccc(-n2ncc3c(N4CCC(C(N)=O)CC4)ncnc32)cc1` gave a z-score of 1.62.
In the case of `O=C(Cc1ccc(Br)cc1)OCC(=O)N1CCc2ccccc2C1`, the z-score was -0.569.
In turn, `CCOC(=O)c1cc(CC)sc1NC(=O)CCC(=O)O` gave a z-score of -0.491.
Consider `CC(C)COn1c(=S)[nH]c2ccccc2c1=O`, for which the z-score was active: 3.03.
As for `CN(C)C(=O)CSc1nc2ccccc2n1CC(=O)N1CCN(c2ccccc2)CC1`, the figure is 0.101.
As to `CCOC(=O)C(C)Sc1ncc(OC)c(Sc2ccc(Cl)cc2)n1` (stereo unspecified), the z-score is -0.0286.
For `Cc1c(NC(=O)/C(C#N)=C\c2cccs2)c(=O)n(-c2ccccc2)n1C`, the z-score is -0.0522.
With `COc1ccc2cc(C(c3nnnn3C(C)(C)C)N3CCc4ccccc4C3)c(=O)[nH]c2c1` (stereo unspecified) the figure was 1.25.
The compound `O=C(CCc1ccccc1)NNC(=S)NC(=O)c1ccccc1` had a z-score of 1.13.
Compound `CC(=O)c1nc(N2C(=O)CC(Cc3cccc(C)c3)C2=O)sc1C` (stereo unspecified) had a z-score of -0.395.
As for `O=C(Cn1cnc2c(nnn2-c2ccccc2)c1=O)N1CCOCC1`, the figure is 0.0621; as for `COc1ccc(Nc2oc(-c3ccco3)nc2S(=O)(=O)c2ccc(F)cc2)cc1`, 0.285.
Compound `CCC(NC(=O)c1ccccc1O)c1ccccc1` (stereo unspecified) had a z-score of 0.132.
`CCOC(=O)C1=C(c2ccccc2)NC(SC)=C(C#N)C1c1ccco1` (stereo unspecified) came in with a z-score of -2.51.
Compound `Cn1c(SCC(=O)C(C)(C)C)nnc1-c1ccncc1` had a z-score of -0.217.
As for `COc1ccc2nc3oc(C(=O)NC4CCN(Cc5ccccc5)CC4)cc3cc2c1`, the figure is 1.26; as for `CC(C)(C)NC(=O)COC(=O)c1ccc(O)cc1`, -0.866; as for `CC1CCCCN1C(=O)c1cc2nc(-c3ccccc3)cc(-c3ccccc3)n2n1` (stereo unspecified), -0.18.
On to `CCOc1cc(/C=C(\C#N)C(=O)NCC2CCCO2)ccc1O` (stereo unspecified), for which the z-score was found to be 0.286.
Consider `Cc1cc2c(s1)CCCCC(=O)N2`, for which the z-score came out at 0.0516.
In turn, `CCN(CC)C(=O)C1CCCN(C(=O)Nc2ccccc2)C1` (stereo unspecified) had a z-score of -0.241.
`CCOC(=O)/C=C/C(=O)Nc1ccc(S(=O)(=O)Nc2c(C)cc(C)cc2C)cc1` yielded a z-score of -0.16.
In turn, `CCOC(=O)N(C)c1ccc(C(O)(C(F)(F)F)C(F)(F)F)cc1` had a z-score of 0.389.
Compound `Cc1c(N/C(=N/S(=O)(=O)c2ccccc2)c2ccc(Cl)cc2)c(=O)n(-c2ccccc2)n1C` had a z-score of -0.38.
The compound `CCOC(=O)c1ccc(NC(=O)CC2Sc3ncnn3C2=O)cc1` (stereo unspecified) yielded a z-score of -0.0772.
For the compound `CCC(C)NC(=O)Cn1cnc2sc(C)cc2c1=O` (stereo unspecified), the z-score was -0.214.
`COCCNC(=O)CCc1nc(-c2ccccc2)no1`: the z-score was -0.141.
With `COc1ccccc1N1CCN(C(=O)c2cccc3c(=O)c(C)c(-c4ccccc4)oc23)CC1` the figure was -0.287; with `COc1ccc(-c2c(C#N)c(N)nc3c2CCCC3)cc1OC`, 0.0196; with `CCCNC(=O)C(=O)NCCC1=CCCCC1`, -0.0122.
In the case of `CCCCC(O)(CCCC)C(=O)NN(C(=O)OC)c1ccccc1`, the z-score was -0.311.
As for `OC(COc1ccc2cc(Br)ccc2c1)CN1CCN(c2ccccn2)CC1` (stereo unspecified), the figure is -0.00684.
With `CCN(CC)CCNS(=O)(=O)c1ccc(Cl)cc1` the figure was -0.355; with `Cc1cc(C)nc(N2CCCC(C(=O)NCc3cccs3)C2)n1` (stereo unspecified), -0.0389.
Turning to `OC1(c2ccccc2F)CCN(Cc2nnnn2CCc2ccccc2)CC1`, the z-score was -0.368.
The compound `O=C(CN1CCc2ccccc21)NCc1ccc2c(c1)OCO2` yielded a z-score of -0.334.
`Cc1cccc(C)c1OCC(=O)Nc1ccc(S(=O)(=O)Nc2ccccn2)cc1`: the z-score is -0.0977.
On to `COc1ccc(Br)cc1CNC(=O)C1CCCN(S(C)(=O)=O)C1` (stereo unspecified), for which the z-score worked out at 0.214.
As for `CC(C)(C=O)C1=CC(=O)c2ccccc2C1=O`, the z-score was -0.0423.
Regarding `CCOc1ccc(OCC)c(NC(=O)C2COc3ccccc3O2)c1` (stereo unspecified), the z-score was -0.38.
For the compound `O=C(NCCc1nc2ccccc2[nH]1)/C(=C/c1ccco1)NC(=O)c1ccc(Br)o1`, the z-score was -0.559.
`COCCn1nnnc1C(c1cccc(C(F)(F)F)c1)N1CCN(Cc2ccccc2)CC1` (stereo unspecified): the z-score is -0.165.
For the compound `O=C(/C=C/c1ccc(F)cc1)c1ccccc1Br`, the z-score is -0.272.
`Cc1cc(C)c(C)c(OCC(=O)NCC2CCCO2)c1` (stereo unspecified) yielded a z-score of 0.245.
On to `OC(CSc1ccccc1Cl)CN1CCN(c2ccc(F)cc2)CC1` (stereo unspecified), for which the z-score is -0.618.
The compound `Cc1cc(NS(=O)(=O)c2ccc(NC(=O)c3cc4ccccc4o3)cc2)no1` displayed a z-score of 0.0455.
In turn, `O=C(c1ccc(-c2cccc(Cl)c2)o1)N1CCN(c2ccc([N+](=O)[O-])cc2)CC1` showed a z-score of -0.33.
With `Cn1c(=O)[nH]c(=O)c2c1nc(Br)n2Cc1ccccc1F` the figure was -0.243; with `CN(C)C(=O)c1ccc(COc2ccccc2Br)o1`, -0.279.
`CCN=c1scc(C)n1/N=C/c1ccsc1` showed a z-score of -0.0195.
As for `Cc1cc(-c2csc(NC(=O)c3ccc(C#N)cc3)n2)c(C)n1Cc1ccccc1`, the z-score was -0.163.
The compound `COCc1cc(C)nc(SCC(=O)Nc2ccc3c(c2)OCO3)c1C#N` yielded a z-score of -0.211.
Take `CCOC(=O)N1CCC(NC(=O)C2CCN(c3nc(-c4ccc(OC)cc4)no3)CC2)CC1`: the z-score is -0.18.
As for `Cc1ccc2nc(SCC(=O)O)nc(C)c2c1`, the z-score is -0.0733.
Compound `Nn1c(SCC(=O)NC2CCCc3ccccc32)nnc1-c1cccs1` (stereo unspecified) registered a z-score of -0.896.
Consider `Cc1cc(C)nc(N2CCCC(C(=O)NCc3ccccc3)C2)n1` (stereo unspecified), for which the z-score was -1.14.
With `Cc1ccc2oc3nc(C)c(C(=O)O)cc3c(=O)c2c1` the figure was -0.396; with `COC(=O)c1onc(C(=O)c2ccccc2)c1C(=O)OC`, active: -3.65.
As for `CCN(CC)c1ccc(NC(=O)c2nc3nc(C)cc(C(F)F)n3n2)cc1`, the z-score is active: 3.02.
Regarding `COc1ccc(CCNc2nc(N3CCCCC3)nc(N3CCCCC3)n2)cc1OC`, the z-score was -0.179.
The compound `CC(OC(=O)CCCCCN=C1NS(=O)(=O)c2ccccc21)C(=O)Nc1cc(Cl)cc(Cl)c1` (stereo unspecified) returned a z-score of -0.581.
The compound `CCOC(=O)N1CCC(NC(=O)c2ccc3c(c2)N(CC)CCS3)CC1` displayed a z-score of -0.235.
`CCn1c(=O)c(=O)[nH]c2cc(C(=O)Nc3ccc(S(=O)(=O)N4CCCC4)cc3)ccc21`: the z-score was -0.219.
For the compound `CCOC(=O)Cc1nnc(NC(=O)c2ncn[nH]2)s1`, the z-score stood at 0.485.
Compound `COc1ccccc1N1CCN(CC(=O)Nc2ccc(CN3CCCCC3)cc2)CC1` registered a z-score of -0.246.
In turn, `O=[N+]([O-])c1ccc(OC/C=C2\Oc3ccc([N+](=O)[O-])cc3C2N2CCOCC2)cc1` (stereo unspecified) had a z-score of -0.155.
As for `CCC(=O)Nc1nc2ccccc2n1CCN(C)C`, the figure is -0.224; as for `COCCn1c(=O)[nH]c2cc(C(=O)NC(C)C)ccc2c1=O`, 0.167; as for `Cc1ccc2nc(SCc3nc4c(cnn4-c4ccccc4)c(=O)[nH]3)[nH]c2c1`, -0.0689.
Consider `Cc1ccccc1OCc1nc2ccc(S(=O)(=O)N3CCOCC3)cc2[nH]1`, for which the z-score came to 0.132.
For `Nc1cc(=O)nc(SCC(=O)Nc2cccc3ccccc23)n1CCc1ccccc1`, the z-score is -0.219.
As for `O=C(c1cnccn1)N(c1ccccc1)C1(C(=O)NC2CCCCC2)CCCCC1`, the figure is 0.313.
In turn, `CCCCNC(=O)N(O)C1N(CCCC)C(=O)N(CC(=O)OC)C1(C)C` (stereo unspecified) displayed a z-score of 0.604.
Compound `COc1cccc2cc(C(=O)N3CCN(c4ccccc4F)CC3)c(=O)oc12` returned a z-score of -0.546.
With `Cc1ccc(C(CC(=O)O)Nc2nc(N3CCCCC3)nc(N3CCCCC3)n2)cc1` (stereo unspecified) the figure was -0.729; with `O=C(NC(=O)c1ccccc1)OCC(F)(F)F`, -0.338.
In the case of `O=c1oc(-c2ccc(Br)o2)nc2ccccc12`, the z-score is active: 5.63.
As for `CCOc1cc(CNn2nnnc2N)cc(Cl)c1OCC(=O)NC(C)(C)C`, the figure is 0.0889.
On to `C#CCSc1nc2ccccc2n1C(=O)c1ccc(S(=O)(=O)N2CCCCC2)cc1`, for which the z-score was -0.221.
`CCOC(=O)Cc1csc(N/C(=N/S(=O)(=O)c2ccc(Cl)cc2)c2ccccc2)n1` returned a z-score of -0.123.
As to `COCCSc1ccccc1C(=O)Nc1ccncc1`, the z-score turned out to be 0.236.
`Cc1ccsc1C=Nc1c(C)n(C)n(-c2ccccc2)c1=O` yielded a z-score of 0.106.
With `O=C1C2C3C=CC(C3)C2C(=O)N1Cc1cccnc1` (stereo unspecified) the figure was 0.0453.
Consider `COc1ccc(NC(=O)C2C(=O)NC3(C)CC2c2ccccc2O3)cc1` (stereo unspecified), for which the z-score was -0.312.
Regarding `CN(C)S(=O)(=O)N(CC(=O)Nc1cccc(F)c1)c1ccccc1`, the z-score worked out at 0.587.
